# Data reported in the supplement of paper PMC8728848.
# The other results are listed elsewhere or left out.
# B1: Gal 9 (Canis lupus) (protein)
# chain: MAFSSSQPPYLSPGVPFSGKIQGGLQDGLKITINGTILYCNGTRFAVNFHSGHSDSDIAFHFNPRFEEGGYVVCNTKQKGSWGSEERKMQMPFQMGNPFELCFMVNSCDFKVTVNGSHFTQYSHRVPFHYVDTLSITGAVQLSYISFQSPGVWQSSSAPITQTVIHTVQTTPGQPFPNPIIPPTAYPTPTYPMPFFTSIPGGLYPSKSIIVSGTVLPGAKRFHINLRSGNDIAFHLNPRFNENTVVRNMQINNSWGSEERSLPRKMPFVQGQSFSVWIMCEGHCFKVAVDGEHLFEYYHRLKNLLAINNMEVAGDVQLTHVQT
# Columns and labels:
# Experiment in all cases: glycan array binding signal (z-score within array); higher = stronger binding
# Conditions in all cases: glycan notation: IUPAC condensed, linker removed
# [1] = molecular target: Gal(a1-3)Gal
# Method in brief: (§1)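 From the Consortium for Functional Glycomics database, 3228 arrays were curated, keeping only those whose protein sequence was available. Binding is given as a within-array Z-score averaged across arrays sharing a protein sequence and across linkers. Negative Z-scores can be read as non-binding.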
# [2] = molecular target: Gal(a1-3)Gal(b1-3)GlcNAc
# Method in brief: as §1
# [3] = molecular target: Gal(a1-3)Gal(b1-3)GlcNAc(b1-2)Man(a1-3)[Gal(a1-3)Gal(b1-3)GlcNAc(b1-2)Man(a1-6)]Man(b1-4)GlcNAc(b1-4)GlcNAc
# Method in brief: as §1
# [4] = molecular target: Gal(a1-3)Gal(b1-3)GlcNAc(b1-3)GalNAc
# Method in brief: as §1
# [5] = molecular target: Gal(a1-3)Gal(b1-3)[Fuc(a1-4)]GlcNAc(b1-2)Man(a1-3)[Gal(a1-3)Gal(b1-3)[Fuc(a1-4)]GlcNAc(b1-2)Man(a1-6)]Man(b1-4)GlcNAc(b1-4)GlcNAc
# Method in brief: as §1
# [6] = molecular target: Gal(a1-3)Gal(b1-4)Glc
# Method in brief: as §1
# [7] = molecular target: Gal(a1-3)Gal(b1-4)GlcNAc
# Method in brief: as §1
# [8] = molecular target: Gal(a1-3)Gal(b1-4)GlcNAc(b1-3)GalNAc
# Method in brief: as §1
# [9] = molecular target: Gal(a1-3)Gal(b1-4)[Fuc(a1-3)]GlcNAc
# Method in brief: as §1
# [10] = molecular target: Gal(a1-3)Gal(b1-4)[Fuc(a1-3)]GlcNAc(b1-2)Man(a1-3)[Gal(a1-3)Gal(b1-4)[Fuc(a1-3)]GlcNAc(b1-2)Man(a1-6)]Man(b1-4)GlcNAc(b1-4)GlcNAc
# Method in brief: as §1
# [11] = molecular target: Gal(a1-3)GalNAc
# Method in brief: as §1
# [12] = molecular target: Gal(a1-3)[Gal(a1-4)]Gal(b1-4)GlcNAc
# Method in brief: as §1
# [13] = molecular target: Gal(a1-4)Gal(b1-3)GlcNAc(b1-2)Man(a1-3)[Gal(a1-4)Gal(b1-3)GlcNAc(b1-2)Man(a1-6)]Man(b1-4)GlcNAc(b1-4)GlcNAc
# Method in brief: as §1
# [14] = molecular target: Gal(a1-4)Gal(b1-4)Glc
# Method in brief: as §1
# [15] = molecular target: Gal(a1-4)Gal(b1-4)GlcNAc
# Method in brief: as §1
# [16] = molecular target: Gal(a1-4)Gal(b1-4)GlcNAc(b1-2)Man(a1-3)[Gal(a1-4)Gal(b1-4)GlcNAc(b1-2)Man(a1-6)]Man(b1-4)GlcNAc(b1-4)GlcNAc
# Method in brief: as §1
# [17] = molecular target: Gal(a1-4)Gal(b1-4)GlcNAc(b1-3)Gal(b1-4)Glc
# Method in brief: as §1
# [18] = molecular target: Gal(a1-4)GlcNAc
# Method in brief: as §1
# [19] = molecular target: Gal(a1-6)Glc
# Method in brief: as §1
# [20] = molecular target: Gal(b1-2)Gal
# Method in brief: as §1
# [21] = molecular target: Gal(b1-3)Gal
# Method in brief: as §1
# [22] = molecular target: Gal(b1-3)Gal(b1-4)GlcNAc
# Method in brief: as §1
# [23] = molecular target: Gal(b1-3)Gal(b1-4)GlcNAc(b1-2)Man(a1-3)[Gal(b1-3)Gal(b1-4)GlcNAc(b1-2)Man(a1-6)]Man(b1-4)GlcNAc(b1-4)GlcNAc
# Method in brief: as §1
# [24] = molecular target: Gal(b1-3)GalNAc
# Method in brief: as §1
# [25] = molecular target: Gal(b1-3)GalNAc(a1-3)[Fuc(a1-2)]Gal(b1-4)Glc
# Method in brief: as §1
# [26] = molecular target: Gal(b1-3)GalNAc(a1-3)[Fuc(a1-2)]Gal(b1-4)GlcNAc
# Method in brief: as §1
# [27] = molecular target: Gal(b1-3)GalNAc(b1-3)Gal(a1-4)Gal(b1-4)Glc
# Method in brief: as §1
# [28] = molecular target: Gal(b1-3)GalNAc(b1-4)Gal(b1-4)Glc
# Method in brief: as §1
# [29] = molecular target: Gal(b1-3)GalNAc(b1-4)[Neu5Ac(a2-3)]Gal(b1-4)Glc
# Method in brief: as §1
# [30] = molecular target: Gal(b1-3)GlcNAc
# Method in brief: as §1
binder,measurement,setting,value
B1,glycan array binding signal (z-score),[1],-0.349
same,glycan array binding signal (z-score),[2],0.12
same,glycan array binding signal (z-score),[3],-0.303
same,glycan array binding signal (z-score),[4],0.104
same,glycan array binding signal (z-score),[5],-0.292
same,glycan array binding signal (z-score),[6],0.126
same,glycan array binding signal (z-score),[7],0.251
same,glycan array binding signal (z-score),[8],-0.01
same,glycan array binding signal (z-score),[9],-0.337
same,glycan array binding signal (z-score),[10],-0.257
same,glycan array binding signal (z-score),[11],-0.296
same,glycan array binding signal (z-score),[12],-0.334
same,glycan array binding signal (z-score),[13],-0.317
same,glycan array binding signal (z-score),[14],-0.342
same,glycan array binding signal (z-score),[15],-0.337
same,glycan array binding signal (z-score),[16],-0.31
same,glycan array binding signal (z-score),[17],0.118
same,glycan array binding signal (z-score),[18],-0.318
same,glycan array binding signal (z-score),[19],-0.333
same,glycan array binding signal (z-score),[20],-0.342
same,glycan array binding signal (z-score),[21],-0.066
same,glycan array binding signal (z-score),[22],0.213
same,glycan array binding signal (z-score),[23],0.18
same,glycan array binding signal (z-score),[24],-0.085
same,glycan array binding signal (z-score),[25],3.45
same,glycan array binding signal (z-score),[26],1.33
same,glycan array binding signal (z-score),[27],-0.083
same,glycan array binding signal (z-score),[28],0.007
same,glycan array binding signal (z-score),[29],0.047
same,glycan array binding signal (z-score),[30],-0.179
